Experimental data published in PubChem BioAssay AID434955 (Southern Research Specialized Biocontainment Screening …, 2010).
This is one part of the list. Further columns of the screen follow, without active or inactive calls. The list favours compounds with an active or inconclusive main result.

Assay: beta-lactam sensitization of Mtb H37Rv, H37Rv (AID 434955);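 note: growth measured after seven days incubation then overnight dye step; 0% = bacteria only wells and 100% = bacteria with antibiotic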
Conditions: M. tuberculosis H37Rv growth with meropenem, percent inhibition; measured here: primary screen without meropenem; at 25 µM
With CCn1c(=O)cc(OCC(=O)NCC2CCCO2)c2ccccc21 (configuration not stated) the inhibition was 19.6%. In the case of COc1ccc(Cl)cc1NC(=O)CN(C)C(=O)Cc1ccc2c(c1)CCC2, the inhibition is reported as 6.31%. CCOC(=O)c1[nH]c(C)c(C(=O)NCc2cccnc2)c1C gave an inhibition of -5.92%. CCOC(=O)C1C(=O)NC(N2CCCCC2)=NC1c1ccccc1 (configuration not stated) gave an inhibition of 3.45%. CC(C)C(NS(=O)(=O)c1ccc2c(c1)C(C)(C)C(=O)N2C)C(=O)NCc1ccc(F)cc1 (configuration not stated) gave an inhibition of -9.12%. Work on C=CCNc1oc(-c2ccco2)nc1S(=O)(=O)c1ccccc1 yielded an inhibition of 0.17%. With Cc1ccc(O)c(N=Cc2sc3ccccc3c2Cl)c1 the inhibition was -1.75%. O=C(NCc1ccccc1)NC(=O)c1ccncc1 showed an inhibition of 2.33%. For Cc1cccc(N2C(=O)C(Cl)=C(N3CCOCC3)C2=O)c1, the inhibition was -0.44%. With CCCn1ncc(CN2CCC(C(=O)Nc3cccc(-c4cccc(F)c4)c3)CC2)c1C the inhibition was 9.62%. In the case of CCc1c(C)nc(SC/C=C/c2ccccc2)[nH]c1=O, the inhibition is reported as -1.33%. Molecule COc1ccccc1-c1cc(C(=O)NCCCn2ccnc2)no1 has an inhibition of 1.3%. O=C(C(NS(=O)(=O)c1cccc2nsnc12)c1ccccc1)N1CCN(c2ccccn2)CC1 (configuration not stated) showed an inhibition of -10.4%. In the case of O=C(CN1C(=O)NC2(CCCCCC2)C1=O)Nc1ccc(Br)cc1Br, the inhibition is reported as 74.7%. Molecule CCOC(=O)N1CCN(CC(=O)Nc2cc3c(cc2C(C)=O)OCO3)CC1 has an inhibition of 2.59%. In the case of COc1cc(OCC(=O)NC(C)C)cc2c1C(=O)O[C@@H](C)CCCC(=O)CCCCC2, the inhibition is reported as -6.52%. With O=C(NCCCN1CCCC1=O)c1cn(-c2ccccc2)nc1-c1ccccc1 the inhibition was 2.99%. In the case of Oc1ccc(N=C/C=C/c2ccc(Br)cc2)cc1-c1nc2ccccc2s1, the inhibition is reported as -1.24%. With CCN(C(=O)c1ccc2c(SCC(=O)O)c3c(nc2c1)CCC3)c1cc(Cl)ccc1OC the inhibition was -1.8%. C/C(=N\NC(=S)Nc1ccccc1C)c1ccc(O)cc1 gave an inhibition of 21.2%. Molecule O=C(Oc1c(-c2ccccc2)c(=O)n2c3c(cccc13)CC2)c1cccc([N+](=O)[O-])c1 has an inhibition of 33.1%. In the case of COc1cc(Cl)ccc1OCc1cc(C(=O)N(C)Cc2cccc3cnccc23)no1, the inhibition is reported as 2.41%. With O=C(CNS(=O)(=O)c1ccc(Br)cc1)N1CCN(Cc2ccccc2)CC1 the inhibition was 4.55%. CCN(CC)CCNC(=O)CCn1c(=S)[nH]c2cc3c(cc2c1=O)OCO3 gave an inhibition of 7.09%. In the case of Cc1cc(C)c(C)c(S(=O)(=O)NCc2cccnc2)c1C, the inhibition is reported as 0.47%. For COc1ccc(NC(=O)CCNS(=O)(=O)c2ccc3c(c2)c(=O)n(C)c(=O)n3C)c(OC)c1, the inhibition was 7.86%. Cc1ccccc1OCC(=O)Nc1ccccc1-c1ccccc1 showed an inhibition of 0.06%. Work on Cc1cc2[nH]c(=O)c(=O)[nH]c2cc1S(=O)(=O)N1CCN(c2cccc(Cl)c2)CC1 yielded an inhibition of -5.96%. For CC(C)(C)Nc1nc(SCC(=O)Nc2ccccc2Cl)nc(N2CCOCC2)n1, the inhibition was 3.64%. For COC(=O)c1ccccc1NC(=O)n1cc(C)cn1, the inhibition was -5.34%. For Cc1ccc(O)c(NC(=O)C2=CC(c3ccco3)=NS(=O)(=O)N2C)c1, the inhibition was -7.04%. Work on Cc1cc(=S)nc(-c2ccccn2)[nH]1 yielded an inhibition of 15%. Molecule Cc1cc(O)cc(O)c1C(=O)Cc1cnn(-c2ccccc2)c1 has an inhibition of 3.24%. For C=CCn1c(=S)[nH]c2nc3c(cc2c1=O)COC(C)(C)C3, the inhibition was 4.11%. CCOCCCNC(=O)C(NC(=O)CNC(=O)c1ccccc1)c1ccc(C)cc1 (configuration not stated) gave an inhibition of -3.08%. In the case of Cn1c(SCC(=O)N2CCCC2)nc2ccccc2c1=O, the inhibition is reported as 0.84%. O=c1cc(N2CCc3ccccc3C2)[nH]c(=O)n1-c1ccc(Cl)cc1 showed an inhibition of -4.54%. For CN(c1ccccc1)c1nc(N)c([N+](=O)[O-])c(N2CCCC2)n1, the inhibition was -0.17%. For O=C(C[n+]1cc(Br)cc(Br)c1)c1ccc(Cl)cc1, the inhibition was 5.17%. Molecule CCOc1cc(N2CCOCC2)c(OCC)cc1NC(=O)c1cc(C)cc(C)c1 has an inhibition of 43.8%. For CCOC(=O)c1oc2ccccc2c1NC(=O)c1ccccc1OC, the inhibition was 37.8%. Work on Cc1cc(C(=O)O)sc1C yielded an inhibition of 4.33%. CSCC[C@H](NC(=O)Cc1c(C)c2cc3c4c(oc3cc2oc1=O)CCCC4)C(=O)O gave an inhibition of 2.34%. CCC(=O)Nc1ccc(-c2ccc(N3CCC(C)CC3)nn2)cc1 gave an inhibition of 5.15%. For Cc1ccc(C(=O)Nc2ccc3c(c2)OCO3)cc1Cl, the inhibition was 3.37%. For CCC(C)C(NC(N)=O)C(=O)Nc1ccc(OCc2ccccc2)cc1 (configuration not stated), the inhibition was -2.3%. Work on Cc1noc(NS(=O)(=O)c2ccc(N/C=C\C(=O)c3ccc4c(c3)OCO4)cc2)c1C yielded an inhibition of 32.3%. Cc1ccccc1C(=O)Nc1ccnn1C1CCN(Cc2cnn(C(C)C)c2)CC1 showed an inhibition of -5.05%. Work on COc1ccccc1NC(=O)CNS(=O)(=O)c1ccccc1 yielded an inhibition of -0.32%. COCCSc1nc(N)c(NC(=O)c2ccco2)c(=O)[nH]1 showed an inhibition of -5.7%. COc1cnc(SCc2c(Cl)cccc2Cl)nc1Cl gave an inhibition of -0.19%. Cc1ccc(-n2ncc3c(=O)[nH]cnc32)c(C)c1 gave an inhibition of -1.66%. With Cc1ccccc1NC(=O)COC(=O)Cc1cccc(C(F)(F)F)c1 the inhibition was 0.27%. Work on CC(/C=C(\NC(=O)c1ccccc1)C(=O)N=Nc1c(O)[nH]c2ccc(C)cc12)=C\c1ccccc1 yielded an inhibition of 43.7%. In the case of CCc1ccc(CN(C)CCc2ccccn2)cc1, the inhibition is reported as 0.01%. NS(=O)(=O)c1ccc(NC(=S)NC(=O)c2ccco2)cc1 gave an inhibition of 6.83%. Work on CN(c1ccc(C(=O)Nc2nccs2)cc1)S(=O)(=O)c1ccccc1 yielded an inhibition of 0.31%. In the case of COc1ccc(N2CCN(C(=O)CCCn3nnnc3CN3CCOCC3)C(C)C2)cc1 (configuration not stated), the inhibition is reported as -1.64%. For C/C(=N\NC(=O)c1ccccc1O)c1ccc(Br)s1, the inhibition was 11.8%. Molecule COc1cc(/C=N/n2c(C3CCCCC3)n[nH]c2=S)cc(Br)c1O has an inhibition of 13.8%. Work on COc1cccc(/C=C/c2[nH]c(=O)[nH]c(=O)c2[N+](=O)[O-])c1O yielded an inhibition of 42.5%. In the case of Cc1ccccc1NC(=O)c1ccc(CN(c2ccccc2)S(=O)(=O)c2ccccc2)cc1, the inhibition is reported as -2.56%. For CC(C)=CCC/C(C)=C/C=N/NC(=O)c1ccc([N+](=O)[O-])cc1, the inhibition was 35%. Molecule Cc1c(N(C)S(=O)(=O)c2cc(C(=O)N3CCCC3)ccc2Cl)c(=O)n(-c2ccccc2)n1C has an inhibition of -8.83%. With COc1ccc(-n2nc(C(=O)NCC(=O)NCc3ccco3)c3ccccc3c2=O)cc1 the inhibition was -8.25%. Work on CCOC(=O)c1c(-c2ccccc2)n(C)c2ccc(O)cc12 yielded an inhibition of 2.93%. Work on Cc1ccccc1NC(=O)c1ccc(C)c(S(=O)(=O)Nc2cccnc2)c1 yielded an inhibition of 7.17%. Molecule CCOc1ccccc1C(=O)NCC(=O)OCCOc1cccc(Cl)c1 has an inhibition of 6.74%. COc1ccc(C(=O)C2CCCN(C(=O)c3ccc(F)cc3)C2)cc1OC (configuration not stated) showed an inhibition of 0.48%. With COc1ccc(OC)c(NC(=O)CSc2nc(N3CCOCC3)nc(N3CCOCC3)n2)c1 the inhibition was -13%. Work on S=c1[nH]nc(C2CCCCC2)n1/N=C/c1c(Cl)cccc1Cl yielded an inhibition of 5.55%. Molecule CCOC(=O)N1CCN(c2c(F)cc3[nH]c(=S)[nH]c3c2Br)CC1 has an inhibition of 8.41%. In the case of CC(=O)c1cc2c(cc1NC(=O)c1cnc(C)cn1)OCO2, the inhibition is reported as -0.07%. In the case of Cc1cccc(NS(=O)(=O)c2cc(C(=O)N3CCCCCC3)ccc2C)c1, the inhibition is reported as -12%. Molecule COc1ccc(Cc2nc3ccc(C(=O)NCCc4ccccn4)cc3o2)cc1OC has an inhibition of 3.47%. For Cc1cc2c(cc1S(=O)(=O)N1CCCC1)n(C)c(=O)c(=O)n2C, the inhibition was -5.02%. For O=C(Cn1ncc2c3ccccc3n(Cc3ccccc3)c2c1=O)N1CCN(c2ncccn2)CC1, the inhibition was 5.68%. O=C(N1CCOCC1)N1CCC(n2nnc3ccccc32)CC1 showed an inhibition of -6.57%. In the case of CC1CCCN(C(=O)C2CCN(c3ncnc4c3nc3n4CCCCC3)CC2)C1 (configuration not stated), the inhibition is reported as 34.5%. O=C(Cc1ccccc1)NCC(=O)OCc1cccc([N+](=O)[O-])c1 gave an inhibition of -4.63%. O=C(NCCN1CCOC1=O)C1CCC(=O)N(CCc2ccc(Cl)cc2)C1 (configuration not stated) gave an inhibition of 0.15%. Molecule Cn1cc(CNC(=O)C2CCC(=O)N(Cc3ccccc3F)C2)cn1 (configuration not stated) has an inhibition of 13.3%. COc1ccc(-n2cc(-c3ccccc3)c3c(NN4CCOCC4)ncnc32)cc1 gave an inhibition of 41.9%. In the case of CN1C(C(=O)Nc2ccc(F)cc2F)=CC(c2ccco2)=NS1(=O)=O, the inhibition is reported as -4.63%. In the case of O=C(O)c1ccc(NC(=S)Nc2ccccc2)cc1, the inhibition is reported as -1.84%. COc1ccc(CNc2oc(-c3ccccc3)nc2C#N)cc1 gave an inhibition of -3.18%. Molecule COc1ccccc1C(=O)NC(=S)Nc1ccccc1N1CCCC1 has an inhibition of 93.4%. CCOc1ccc2ccccc2c1/C=N\NC(=O)OC gave an inhibition of -4.84%. Cc1cc(C)cc(NC(=O)N2CCC(c3nc4ccccc4o3)CC2)c1 gave an inhibition of 2.38%. Molecule O=C(C1=C(O)C(=O)N(Cc2ccco2)C1c1cccc([N+](=O)[O-])c1)c1ccco1 (configuration not stated) has an inhibition of 4.96%. For COC(=O)c1ccc(COc2ccccc2/C=C(\C#N)C(=O)Nc2c(C)cc(C)cc2C)cc1, the inhibition was -9.16%. With COc1ccc(-c2cc3nc(C)cc(N4CC(C)CC(C)C4)n3n2)cc1 (configuration not stated) the inhibition was 38.3%. With CCN(CC)CCCNC(=O)c1c(O)c2ccccc2n(Cc2ccccc2)c1=O the inhibition was 32.5%. With O=C(CSc1nnc(NC(=O)c2ccccc2[N+](=O)[O-])s1)NC1CCCC1 the inhibition was 4.71%. Work on Cc1c(-c2ccccc2)cnc2c(C)cccc12 yielded an inhibition of 13.5%. With Cc1ccc(S(=O)(=O)Nc2cccc3cccnc23)c([N+](=O)[O-])c1 the inhibition was 22.6%. With CCCN(CCC)CCCNC(=O)CS(=O)Cc1nc(-c2ccc(OC)c(OC)c2)oc1C (configuration not stated) the inhibition was 2.7%. For Cc1nnc(SCc2cccc(Cl)c2)n(N)c1=O, the inhibition was 49.8%. Molecule Cc1c(C(=O)Nc2ccc(-c3nnc4n3CCCCC4)cc2)oc2c1ccc1ccccc12 has an inhibition of -2.1%. COc1cccc(C(=O)Nc2ccc3c(c2)C(=O)N(CC2CCCO2)C3=O)c1 (configuration not stated) showed an inhibition of 6.68%. Work on CC(C)Oc1cccc(C(=O)C2CCCN(C(=O)CCc3cnn(C)c3)C2)c1 (configuration not stated) yielded an inhibition of 0.04%. For Cc1cc(C(=O)Nc2ccccc2C(F)(F)F)no1, the inhibition was -0.58%. In the case of COc1ccc(C(=O)Nc2ccccc2C(N)=O)cc1, the inhibition is reported as -3.67%. In the case of COc1ccc(OCc2nnc3n2N=C(c2ccc(Br)cc2)CS3)cc1, the inhibition is reported as -5.2%. With COc1ccccc1-c1ccc(=O)n(CC(=O)NC(C)(C)C)n1 the inhibition was 0.7%. O=C(c1ccc2nc(Cc3cccc(Cl)c3)oc2c1)N1CCOCC1 showed an inhibition of -0.75%. COc1cc(C2C3CN(C)CC=C3C(C#N)=C(N)C2(C#N)C#N)ccc1OC(C)C (configuration not stated) gave an inhibition of -5.38%.
